{"source": "the BET-seq Pho4 binding data (Le et al. 2018)", "note": "The list shows a part of the results. These are noisy estimates, calculated here from bound and input reads."}
{"target": "T1, Pho4 (S. cerevisiae) (UniProt P07270)", "T1 sequence": "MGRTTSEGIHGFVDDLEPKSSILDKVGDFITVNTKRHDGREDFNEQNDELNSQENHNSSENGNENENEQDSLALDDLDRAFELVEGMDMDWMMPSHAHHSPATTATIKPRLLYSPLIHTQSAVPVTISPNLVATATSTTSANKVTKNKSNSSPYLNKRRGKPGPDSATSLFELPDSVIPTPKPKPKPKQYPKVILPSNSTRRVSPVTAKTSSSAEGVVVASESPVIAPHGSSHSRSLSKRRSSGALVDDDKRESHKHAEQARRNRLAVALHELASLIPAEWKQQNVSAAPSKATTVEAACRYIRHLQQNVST", "assay": "relative binding free energy (BET-seq); higher = weaker binding", "conditions": "reference: library average", "units": {"relative binding free energy": "kcal/mol"}}
{"sequence": "TGGGTCACGTGTAACT", "relative binding free energy": 0.29}
{"sequence": "TGTATCACGTGAGAGT", "relative binding free energy": 0.39}
{"sequence": "CGATGCACGTGTTATT", "relative binding free energy": 0.04}
{"sequence": "CGAGGCACGTGTTTAT", "relative binding free energy": -0.02}
{"sequence": "CAGGGCACGTGAGGGC", "relative binding free energy": 0.08}
{"sequence": "TGTCACACGTGGTAAG", "relative binding free energy": 0.08}
{"sequence": "GAGGACACGTGCGTTG", "relative binding free energy": 0.02}
{"sequence": "AATGTCACGTGCTTTT", "relative binding free energy": 0.02}
{"sequence": "TCGGTCACGTGAGGCA", "relative binding free energy": 0.29}
{"sequence": "ATGGTCACGTGAGCGG", "relative binding free energy": 0.07}
{"sequence": "GCGTTCACGTGAGTGT", "relative binding free energy": 0.36}
{"sequence": "GGTGACACGTGGATTT", "relative binding free energy": 0.29}
{"sequence": "AGTCCCACGTGGGGTG", "relative binding free energy": -0.27}
{"sequence": "ATGTGCACGTGACGGG", "relative binding free energy": 0.06}
{"sequence": "AGTCGCACGTGGTGTT", "relative binding free energy": -0.1}
{"sequence": "TGATTCACGTGTACTG", "relative binding free energy": 0.25}
{"sequence": "GGTGGCACGTGGATCG", "relative binding free energy": -0.04}
{"sequence": "GGGGTCACGTGAGATT", "relative binding free energy": 0.41}
{"sequence": "TAACGCACGTGGGGAT", "relative binding free energy": -0.23}
{"sequence": "GGTCTCACGTGAAAGG", "relative binding free energy": 0.63}
{"sequence": "TGAATCACGTGTAATG", "relative binding free energy": 0.31}
{"sequence": "GGTGTCACGTGATATA", "relative binding free energy": 0.1}
{"sequence": "TGGTCCACGTGTTATA", "relative binding free energy": 0.18}
{"sequence": "ATAATCACGTGGTTTT", "relative binding free energy": 0.04}
{"sequence": "GAGGGCACGTGATATT", "relative binding free energy": 0.08}
{"sequence": "TAACTCACGTGGTGGG", "relative binding free energy": 0.2}
{"sequence": "CTTTACACGTGGTGGG", "relative binding free energy": 0.08}
{"sequence": "TGGATCACGTGAGTGA", "relative binding free energy": 0.22}
{"sequence": "AATTCCACGTGAGAGT", "relative binding free energy": 0.38}
{"sequence": "AGTTGCACGTGTATTG", "relative binding free energy": 0}
{"sequence": "AGAGACACGTGATGGT", "relative binding free energy": 0.03}
{"sequence": "TTAAGCACGTGTGTCA", "relative binding free energy": -0.09}
{"sequence": "GTTAGCACGTGTAATT", "relative binding free energy": 0.04}
{"sequence": "TTATACACGTGTAGCG", "relative binding free energy": 0.12}
{"sequence": "TAGCTCACGTGGGTGA", "relative binding free energy": 0.06}
{"sequence": "GTGTACACGTGTGTCG", "relative binding free energy": 0.04}
{"sequence": "GTTGTCACGTGCTTGC", "relative binding free energy": 0.04}
{"sequence": "GGGCCCACGTGGGGAG", "relative binding free energy": -0.28}
{"sequence": "ATTCGCACGTGTTGGA", "relative binding free energy": -0.13}
{"sequence": "TAATTCACGTGAATAG", "relative binding free energy": 0.45}
{"sequence": "GAATGCACGTGTCGTT", "relative binding free energy": 0.11}
{"sequence": "TGTGCCACGTGCTTGT", "relative binding free energy": -0.21}
{"sequence": "TTTGTCACGTGGTTCG", "relative binding free energy": 0.13}
{"sequence": "GGCAGCACGTGGTTGG", "relative binding free energy": 0}
{"sequence": "GGTGCCACGTGGGAGA", "relative binding free energy": -0.17}
{"sequence": "TGAGTCACGTGTTACG", "relative binding free energy": 0.09}
{"sequence": "GTGCTCACGTGGTTGT", "relative binding free energy": 0.18}
{"sequence": "TTTGGCACGTGTCAGC", "relative binding free energy": 0.1}
{"sequence": "TTGGTCACGTGCGTAG", "relative binding free energy": 0.03}
{"sequence": "TTATACACGTGGCTTG", "relative binding free energy": -0.1}
{"sequence": "TGGTACACGTGGGGGC", "relative binding free energy": -0.02}
{"sequence": "GCAGACACGTGGTGTG", "relative binding free energy": -0.01}
{"sequence": "GTAGGCACGTGTCTGT", "relative binding free energy": -0.05}
{"sequence": "AGGCGCACGTGGGGGA", "relative binding free energy": -0.3}
{"sequence": "TGTACCACGTGTGTGG", "relative binding free energy": -0.03}
{"sequence": "TTTTTCACGTGTAGTC", "relative binding free energy": 0.38}
{"sequence": "ATGTTCACGTGTAACG", "relative binding free energy": 0.4}
{"sequence": "ATTTACACGTGATTGT", "relative binding free energy": 0.21}
{"sequence": "GGTTTCACGTGATCGG", "relative binding free energy": 0.31}
{"sequence": "TGGGGCACGTGTAACA", "relative binding free energy": -0.07}
{"sequence": "TGATTCACGTGCGGGT", "relative binding free energy": 0.23}
{"sequence": "CTTTGCACGTGCTTAG", "relative binding free energy": 0}
{"sequence": "CGATTCACGTGGTATG", "relative binding free energy": 0.1}
{"sequence": "TTCAACACGTGTGTTG", "relative binding free energy": 0.09}
{"sequence": "TTCTACACGTGATTGT", "relative binding free energy": 0.13}
{"sequence": "TCGTACACGTGGGTGA", "relative binding free energy": -0.06}
{"sequence": "TGAGGCACGTGTTCGG", "relative binding free energy": -0.09}
{"sequence": "TGATGCACGTGAAGTG", "relative binding free energy": 0.25}
{"sequence": "ATCATCACGTGTTGTG", "relative binding free energy": 0.02}
{"sequence": "CTGGGCACGTGTTTGT", "relative binding free energy": -0.14}
{"sequence": "ATTTACACGTGTCGTC", "relative binding free energy": 0.22}
{"sequence": "ATTTCCACGTGGTATA", "relative binding free energy": 0.04}
{"sequence": "TGTGTCACGTGGGTGC", "relative binding free energy": -0.03}
{"sequence": "TGTCGCACGTGTGTAG", "relative binding free energy": -0.05}
{"sequence": "GTGTGCACGTGATATT", "relative binding free energy": 0.17}
{"sequence": "AGATCCACGTGGGTGT", "relative binding free energy": -0.09}
{"sequence": "GTGGGCACGTGGGCCT", "relative binding free energy": -0.18}
{"sequence": "GCAGACACGTGGGTGT", "relative binding free energy": -0.22}
{"sequence": "TGTAGCACGTGTCAGG", "relative binding free energy": -0.03}
{"sequence": "AGGCACACGTGGCGGT", "relative binding free energy": -0.1}
{"sequence": "GTGAGCACGTGTCGGG", "relative binding free energy": -0.12}
{"sequence": "GTAGTCACGTGTGCTT", "relative binding free energy": 0.22}
{"sequence": "CTTGTCACGTGGCATG", "relative binding free energy": -0.07}
{"sequence": "TTTAGCACGTGTATTG", "relative binding free energy": -0.15}
{"sequence": "GATTTCACGTGGACGT", "relative binding free energy": 0.33}
{"sequence": "CTATTCACGTGGTGAG", "relative binding free energy": 0.09}
{"sequence": "CTGCTCACGTGGTGTA", "relative binding free energy": 0.12}
{"sequence": "AGGTACACGTGAATTG", "relative binding free energy": 0.13}
{"sequence": "ATTAACACGTGAGTAT", "relative binding free energy": 0.23}
{"sequence": "GGGGGCACGTGTCACG", "relative binding free energy": -0.17}
{"sequence": "GGTGGCACGTGGATTC", "relative binding free energy": 0.09}
{"sequence": "GTAGTCACGTGTGCAG", "relative binding free energy": 0.2}
{"sequence": "ATAAGCACGTGGACGG", "relative binding free energy": -0.07}
{"sequence": "GATTTCACGTGGTTAG", "relative binding free energy": 0.44}
{"sequence": "GGACTCACGTGTAGGT", "relative binding free energy": 0.22}
{"sequence": "TTTCACACGTGGAGGG", "relative binding free energy": 0.07}
{"sequence": "TATTTCACGTGCTGGT", "relative binding free energy": 0.28}
{"sequence": "GTTGGCACGTGTCGTA", "relative binding free energy": -0.09}
{"sequence": "GGTTTCACGTGGAATT", "relative binding free energy": 0.45}
{"sequence": "TATAGCACGTGTGGTA", "relative binding free energy": 0}
{"sequence": "CGGATCACGTGTGGCG", "relative binding free energy": 0.17}
{"sequence": "TCGAACACGTGATAGG", "relative binding free energy": 0.26}
{"sequence": "AGGTGCACGTGGGCCG", "relative binding free energy": -0.15}
{"sequence": "GTGTACACGTGGCGGG", "relative binding free energy": 0.04}
{"sequence": "ACATGCACGTGGGGTT", "relative binding free energy": -0.26}
{"sequence": "AATTACACGTGAGGAG", "relative binding free energy": 0.3}
{"sequence": "GTTGTCACGTGCTGGA", "relative binding free energy": 0.07}
{"sequence": "TTTATCACGTGGTTGA", "relative binding free energy": 0.07}
{"sequence": "TAATCCACGTGATGGT", "relative binding free energy": 0.19}
{"sequence": "TTAGCCACGTGGTGTA", "relative binding free energy": -0.15}
{"sequence": "TATTTCACGTGTGGAG", "relative binding free energy": 0.44}
{"sequence": "ATTCTCACGTGTCGTT", "relative binding free energy": 0.07}
{"sequence": "GGTTTCACGTGTAGAC", "relative binding free energy": 0.36}
{"sequence": "CTTTCCACGTGGGGGA", "relative binding free energy": -0.08}
{"sequence": "AGGTTCACGTGGGGCG", "relative binding free energy": 0.23}
{"sequence": "TCGTGCACGTGGCTGG", "relative binding free energy": -0.23}
{"sequence": "ATGTACACGTGTTGAT", "relative binding free energy": 0.03}
{"sequence": "GGGAGCACGTGTTGCG", "relative binding free energy": -0.13}
{"sequence": "AGAGGCACGTGGTAAA", "relative binding free energy": -0.07}
{"sequence": "GAGGCCACGTGTTGGT", "relative binding free energy": -0.02}
{"sequence": "TGGAGCACGTGAGACG", "relative binding free energy": 0.19}
{"sequence": "TCAGGCACGTGGCGTG", "relative binding free energy": -0.21}
{"sequence": "GTACGCACGTGGTGTC", "relative binding free energy": -0.15}
{"sequence": "TGGTTCACGTGAATCG", "relative binding free energy": 0.48}
{"sequence": "GTGGTCACGTGGTATT", "relative binding free energy": 0.09}
{"sequence": "GGCTCCACGTGGGGGA", "relative binding free energy": -0.14}
{"sequence": "AAGGCCACGTGGGCTG", "relative binding free energy": -0.12}
{"sequence": "TTTTGCACGTGTATGT", "relative binding free energy": 0.15}
{"sequence": "AAAGTCACGTGGGGCG", "relative binding free energy": 0.03}
{"sequence": "GGCGGCACGTGCTTTA", "relative binding free energy": 0.07}
{"sequence": "TGGTACACGTGAGGGC", "relative binding free energy": 0.23}
{"sequence": "GAGTACACGTGGTGTT", "relative binding free energy": 0.17}
{"sequence": "TCGTACACGTGGGAGG", "relative binding free energy": 0.03}
{"sequence": "GTAGTCACGTGGCGAT", "relative binding free energy": 0.19}
{"sequence": "TTTGGCACGTGTCCTT", "relative binding free energy": -0.13}
{"sequence": "AATGCCACGTGTCGGG", "relative binding free energy": -0.01}
{"sequence": "CTTGTCACGTGGTGTT", "relative binding free energy": -0.01}
{"sequence": "ATTAGCACGTGAAGTA", "relative binding free energy": 0.2}
{"sequence": "ATGAGCACGTGGTGAG", "relative binding free energy": -0.03}
{"sequence": "ATCGGCACGTGGGTGC", "relative binding free energy": -0.12}
{"sequence": "GGGTACACGTGGCGTG", "relative binding free energy": 0.01}
{"sequence": "GCAATCACGTGTGGGT", "relative binding free energy": 0.16}
{"sequence": "TTAAGCACGTGGTTCT", "relative binding free energy": -0.16}
{"sequence": "GGTATCACGTGAGACT", "relative binding free energy": 0.52}
{"sequence": "AGATACACGTGATAGG", "relative binding free energy": 0.19}
{"sequence": "AGAGGCACGTGATAGG", "relative binding free energy": -0.16}
